In all, about 33,000 sequences were measured (“E-score (-0.5 to 0.5)”: median about -0.017, highest 2% from about 0.3 on). This is one part of the list.
These sequences were tested against T1, Sut1 (UniProt P53032) (assay: PBM E-score (8-mer binding enrichment) (E-score (-0.5 to 0.5)); higher = stronger / more preferred TF binding; most listed sequences are background and not binding sites). Details: protein concentration: 200 nM; construct: GST-full length.
T1 sequence: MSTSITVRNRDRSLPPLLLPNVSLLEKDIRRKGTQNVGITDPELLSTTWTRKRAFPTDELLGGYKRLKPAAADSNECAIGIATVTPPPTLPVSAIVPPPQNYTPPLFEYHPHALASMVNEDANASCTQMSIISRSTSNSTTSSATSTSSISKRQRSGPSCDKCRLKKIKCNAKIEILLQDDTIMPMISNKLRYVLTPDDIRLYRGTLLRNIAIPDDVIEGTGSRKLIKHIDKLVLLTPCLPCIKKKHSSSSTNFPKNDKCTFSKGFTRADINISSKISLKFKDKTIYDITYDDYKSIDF
Outline: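 E-scores (a modified Wilcoxon-Mann-Whitney statistic) were assigned by the Universal PBM Analysis Suite to every ungapped eight-base word pooled with its reverse complement. The input came from universal all-10-mer Agilent arrays made double-stranded by primer extension and probed with GST-tagged yeast transcription factors at about 100-200 nM. Fluorescent anti-GST detected bound protein, and masliner normalised the scans.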

Row | Sequence | PBM E-score
1 | TATGATCA | 0.0698
2 | AGGGAAAC | -0.0896
3 | ATGGAACA | -0.203
4 | AAAGGTAA | 0.109
5 | ATAACAAG | 0.21
6 | CCTACAGG | -0.255
7 | CCAGCCCG | -0.128
8 | TCTTTCCA | -0.083
9 | ACTATCCG | 0.227
10 | GACTACGC | 0.0927
11 | CTCCGGAA | 0.442
12 | ATATTTGG | 0.0141
13 | CGATGGAC | -0.00486
14 | AATTCAAC | 0.274
15 | GGGCAGAC | -0.347
16 | CACCGGCC | -0.231
17 | CTCACTGA | -0.086
18 | AATCGGCA | 0.107
19 | CAAAAGAG | 0.0171
20 | GGCAGTGA | -0.158
21 | GCGTACGC | -0.11
22 | ACTTTCGA | 0.0968
23 | AAAAGTTA | 0.208
24 | CATGCCCA | -0.306
25 | ACGAAAGG | 0.0497

Row | Sequence | PBM E-score
26 | CCCTAATC | -0.141
27 | ACACTCAT | 0.1
28 | ACGAAGTC | 0.0625
29 | GCGGCCGC | -0.199
30 | AGCGTGTG | -0.0751
31 | CAACGACG | -0.0856
32 | ATAAACGA | 0.263
33 | ATCTTGGA | -0.0178
34 | ACTCTAGA | 0.155
35 | CGAGACAC | -0.249
36 | AGGCCAAC | -0.136
37 | GTTGTTTA | 0.275
38 | GCATGGAC | -0.112
39 | CTGAATCA | -0.139
40 | CAGACCGG | 0.0208
41 | ATTGATGC | 0.0977
42 | CGATCGAG | -0.0334
43 | GCATAACA | 0.21
44 | CCGGCACA | -0.0265
45 | ATATAAAA | 0.205
46 | AGAGGCCG | -0.291
47 | ACGGTTTA | -0.0415
48 | ACTTATCT | 0.188
49 | GTGAACGA | 0.0573
50 | GCTTTTAC | 0.115

Row | Sequence | PBM E-score
51 | CACGAGAA | 0.0179
52 | CCATCGGA | 0.255
53 | CTCGTGAA | 0.104
54 | GACCTAGC | 0.00279
55 | GCGGTTAA | -0.0201
56 | CGTCAGAC | -0.201
57 | AGATTTTC | 0.149
58 | CACGGCAG | 0.0407
59 | AACGGCGC | -0.245
60 | GTCTTTTA | -0.0185
61 | CGTCCGAA | 0.125
62 | AACGTAAA | 0.0903
63 | ATAGGTCC | 0.164
64 | ATGATGTG | 0.0779
65 | AGCCCCTG | -0.4
66 | ATAGAAGG | -0.146
67 | AACCCTAA | 0.116
68 | GCAAGTGC | -0.324
69 | CTGCGCTC | -0.221
70 | AGTGCCCG | -0.052
71 | ACGCGTCT | -0.115
72 | GACGTCAA | 0.0712
73 | ATCTTTTA | 0.0745
74 | GCACGGGC | -0.262
75 | CTGAATGA | 0.137

Row | Sequence | PBM E-score
76 | AAAGCCGT | 0.00934
77 | CTACAGCC | -0.088
78 | CTAGGAAC | -0.0827
79 | AAAACTGC | 0.0281
80 | CGCATGCG | -0.167
81 | ACGGTCGA | -0.135
82 | CGTGGACA | -0.0891
83 | AACCGTTG | 0.0827
84 | ACAGGGCC | -0.116
85 | CCAGATCG | -0.204
86 | CGCAACAG | -0.0306
87 | CCCACTTA | 0.109
88 | ACATAGAA | 0.0944
89 | ATTTTCAA | 0.131
90 | GCTCCCAC | -0.109
91 | CAAACTAC | -0.0611
92 | AGCTGCCA | -0.2
93 | CGTTCCGC | -0.0209
94 | CTGGATTC | 0.0502
95 | CAGCCCTG | -0.233
96 | ACTTCCTC | -0.183
97 | CAGCGGAC | 0.104
98 | AAGACAAA | 0.0437
99 | ATACCTCA | 0.0177
100 | ATTACAAC | 0.183

Row | Sequence | PBM E-score
101 | CTTTGATC | 0.0392
102 | CACTAAAG | 0.0709
103 | TAAAGGTA | 0.0902
104 | ATTGCTCA | 9e-05
105 | CAATCCGG | 0.133
106 | CAGCTACC | -0.224
107 | AGATTGTG | -0.0591
108 | ATTTGCTC | 0.141
109 | TCCCGTAA | -0.0821
110 | CGACGCAG | -0.132
111 | GCTGAAGA | -0.00656
112 | AACTGCAC | 0.0943
113 | AACAGCTG | 0.00427
114 | AGAGAAAG | -0.0845
115 | CCACTTCG | -0.0349
116 | CAACTGTA | -0.0516
117 | CCCGAGGA | -0.118
118 | ATGTCAGG | -0.173
119 | ATTGTTTC | 0.214
120 | TCTCGACA | -0.0229
121 | CACCTAAC | 0.0376
122 | CTGGTTTA | -0.0882
123 | GCTTTCGA | 0.143
124 | AGTACACA | 0.0203
125 | AAAGCCCC | -0.103

Row | Sequence | PBM E-score
126 | CTTGTCTC | 0.076
127 | CAAGATTA | 0.132
128 | CTCTGTGC | -0.122
129 | CAAAAGAA | 0.23
130 | CCATGCTC | -0.234
131 | CAAAGCAG | -0.0772
132 | CTTTGATA | 0.108
133 | AGGAGGAG | -0.183
134 | CGGTGTTC | 0.0548
135 | ACTTATAT | 0.325
136 | ATCTTTAA | 0.292
137 | ACAGGCGT | -0.298
138 | AGGGGCGC | -0.264
139 | AAACTTTC | 0.105
140 | AAGGAGCC | -0.0696
141 | ACGTGAGG | -0.0314
142 | ATTAATGA | 0.267
143 | ATCAGAGG | -0.121
144 | AAACAATC | 0.204
145 | CGCTTGAA | 0.0538
146 | ATACATGG | 0.155
147 | CAATCCCA | -0.0642
148 | GCTCACAC | -0.33
149 | GGTACGAA | 0.0616
150 | AGGCGAAT | 0.0276

Row | Sequence | PBM E-score
151 | ATGCTGGG | -0.281
152 | GAGATGCA | -0.0694
153 | AAGTCGGC | -0.133
154 | AATTTACG | 0.198
155 | ACCAGTCG | 0.0629
156 | ATCGTGTC | 0.00577
157 | CAGAGAAA | -0.0232
158 | AGCGTCCT | -0.288
159 | CTCCTTAC | -0.0855
160 | ACGAGGAT | -0.287
161 | AGTTCCGC | 0.131
162 | GTTTTTCA | 0.202
163 | ACATTAAC | 0.173
164 | ATTCCCAA | 0.158
165 | CCCTCTTC | -0.349
166 | GCGGGCCC | -0.175
167 | AGATTCCG | 0.296
168 | GGTCCTTA | -0.0839
169 | ACTGCTCA | 0.0487
170 | ATGGGATA | 0.0485
171 | ATCGCATA | 0.13
172 | GAAAACCA | 0.0111

Reference: the supplement of paper PMC3334620
